Patent publication US9901592B2 (priority 2008, dated 2018)
Converted amounts (≈) assume the structure as drawn. Marks after values point to notes of the source that are not given here.

Assays:
S. aureus ATCC 25923 = type: cell-based
THP-1 macrophages = assay: cellular accumulation (microbiological assay)
S. aureus (ATCC 25923) = type: cell-based; details: broth, 4-mg/liter concentration
S. mitis (112-1885A) = type: cell-based
[1] = tested on: S. aureus (ATCC 25923) in THP-1 macrophages; type: cell-based; details: 4-mg/liter concentration
E. faecalis (ATCC 29212) = type: cell-based
[2] = tested on: S. epidermidis (095-2777A); type: cell-based
[3] = tested on: S. aureus ATCC 25923 phagocytosed by THP-1 macrophages; type: cell-based
[4] = tested on: β-haemolytic streptococci (BHS); assay: organism not typed
[5] = tested on: coagulase-negative staphylococci; details: CoNS (100)
[6] = tested on: β-haemolytic streptococci (BHS); details: BHS (100)
S. pyogenes = type: cell-based; details: S. pyogenes (117-1612A)
[7] = tested on: β-haemolytic streptococci; assay: MBC determination (CLSI), MBC/MIC ratio; details: β-haemolytic streptococci (5)
Enterococcus spp. = assay: MBC determination (CLSI), MBC/MIC ratio; details: Enterococcus spp. (5)
[8] = tested on: Coagulase-neg. staphylococci; assay: MBC determination (CLSI), MBC/MIC ratio; details: Coagulase-neg. staphylococci (5)
[9] = tested on: Viridans group streptococci; assay: MBC determination (CLSI), MBC/MIC ratio; details: Viridans group streptococci (5)
S. aureus = assay: MBC determination (CLSI), MBC/MIC ratio; details: S. aureus (10)
S. pneumoniae = type: cell-based; details: S. pneumoniae (075-241B)

## CC[C@H]1OC(=O)[C@H](C)[C@@H](O[C@H]2C[C@@](C)(OC)[C@@H](O)[C@H](C)O2)[C@H](C)[C@@H](O[C@@H]2O[C@H](C)C[C@H](N(C)C)[C@H]2O)[C@](C)(O)C[C@@H](C)CN(C)[C@H](C)[C@@H](O)[C@]1(C)O [AZI, azithromycin]
S. aureus ATCC 25923
  EC50: 3.55 ×MIC
  Emax: −1.23 log10 CFU
THP-1 macrophages; Verapamil (100 μM)
  Cc/Ce (24 h): 216.37 ± 46.6^(a)
S. aureus (ATCC 25923)
  time to reach the antibacterial effect: 5 h
S. mitis (112-1885A)
  Antimicrobial activity (time kill curve): Cidal at 4X and 8X (slow killing)
[1]
  reduction of CFU: no consistent activity was detected
E. faecalis (ATCC 29212)
  Antimicrobial activity (time kill curve): Static
[2]
  Antimicrobial activity (time kill curve): Static
[3]
  Cs: >100 ×MIC
  EC50: 0.22 ×MIC

## CC[C@H]1OC(=O)[C@@](C)(F)C(=O)[C@H](C)[C@@H](OC2OC(C)CC(N(C)C)C2O)[C@@](C)(OC)C[C@@H](C)C(=O)[C@H](C)[C@H]2N(CCCCn3cc(-c4cccc(N)c4)nn3)C(=O)O[C@]12C (stereo partly shown) [CEM-101, 11-N-4-(3-aminophenyl)-[1,2,3]triazol-1-yl]-butyl}-5-desosaminyl-3-oxo-2-fluoro-erythronolide A,-11,12-cyclic carbamate]
[4]
  MIC50: 0.015 µg/mL (≈ 0.0178 µM)
[4]; BHS (100)
  MIC90: 0.03 µg/mL (≈ 0.0355 µM)
[4]; streptococci (BHS and VGS)
  MIC90: 0.03 to 0.06 µg/mL (≈ 0.0355 to 0.071 µM)
THP-1 macrophages; cells incubated with 10 mg/L for 1 h, then drug-free medium
  time for release of half of the cell-associated drug (efflux): approximately 10 min
S. aureus (ATCC 25923)
  time to reach the antibacterial effect: 1 h
[5]
  MIC50: 0.06 µg/mL (≈ 0.071 µM)
  MIC90: > 16 µg/mL
[6]
  MIC Range: ≦0.008-0.12 μg/ml
E. faecalis (ATCC 29212)
  Antimicrobial activity (time kill curve): Static
[3]
  Cs: 0.35 ×MIC
  EC50: 0.11 ×MIC
  Static dose: ~0.02 mg/L

## CC[C@H]1OC(=O)[C@H](C)[C@@H](O[C@H]2C[C@@](C)(OC)[C@@H](O)[C@H](C)O2)[C@H](C)[C@@H](O[C@@H]2O[C@H](C)C[C@H](N(C)C)[C@H]2O)[C@](C)(OC)C[C@@H](C)C(=O)[C@H](C)[C@@H](O)[C@]1(C)O [CLR, clarithromycin]
S. aureus ATCC 25923
  EC50: 1.59 ×MIC
  Emax: −1.41 log10 CFU
S. mitis (112-1885A)
  Antimicrobial activity (time kill curve): Cidal at 8X only (slow killing)
S. pyogenes
  Antimicrobial activity (time kill curve): Cidal at 8X only (slow killing)
[7]
  No. of strains with MBC/MIC value of: 1: 0
  No. of strains with MBC/MIC value of: 2: 0
  No. of strains with MBC/MIC value of: 4: 1
  No. of strains with MBC/MIC value of: 8: 1
  No. of strains with MBC/MIC value of: 16: 0
  No. of strains with MBC/MIC value of: ≧32: 2^b
E. faecalis (ATCC 29212)
  Antimicrobial activity (time kill curve): Static
[2]
  Antimicrobial activity (time kill curve): Static
Enterococcus spp.
  No. of strains with MBC/MIC value of: 1: 0
  No. of strains with MBC/MIC value of: 2: 0
  No. of strains with MBC/MIC value of: 4: 0
  No. of strains with MBC/MIC value of: 8: 0
  No. of strains with MBC/MIC value of: 16: 0
  No. of strains with MBC/MIC value of: ≧32: 2^b
[8]
  No. of strains with MBC/MIC value of: 1: 0
  No. of strains with MBC/MIC value of: 2: 0
  No. of strains with MBC/MIC value of: 4: 0
  No. of strains with MBC/MIC value of: 8: 0
  No. of strains with MBC/MIC value of: 16: 0
  No. of strains with MBC/MIC value of: ≧32: 4^b
[9]
  No. of strains with MBC/MIC value of: 1: 0
  No. of strains with MBC/MIC value of: 2: 0
  No. of strains with MBC/MIC value of: 4: 1
  No. of strains with MBC/MIC value of: 8: 0
  No. of strains with MBC/MIC value of: 16: 0
  No. of strains with MBC/MIC value of: ≧32: 3^b
S. aureus
  No. of strains with MBC/MIC value of: 1: 0
  No. of strains with MBC/MIC value of: 2: 0
  No. of strains with MBC/MIC value of: 4: 0
  No. of strains with MBC/MIC value of: 8: 0
  No. of strains with MBC/MIC value of: 16: 0
  No. of strains with MBC/MIC value of: ≧32: 6^b
[3]
  Cs: 1.68 ×MIC
  Cs, static concentration at 24 h: ~0.86 mg/L
  EC50: 0.093 ×MIC

## CC[C@H]1OC(=O)[C@H](C)C(=O)[C@H](C)[C@@H](O[C@@H]2O[C@H](C)C[C@H](N(C)C)[C@H]2O)[C@](C)(OC)C[C@@H](C)C(=O)[C@H](C)[C@H]2N(CCCCn3cnc(-c4cccnc4)c3)C(=O)O[C@]12C [TEL, telithromycin]
S. aureus ATCC 25923
  EC50: 0.46 ×MIC
  Emax: −1.00 log10 CFU
[4]
  MIC50: 0.03 µg/mL (≈ 0.0369 µM)
[4]; BHS (100)
  MIC90: 0.12 µg/mL (≈ 0.148 µM)
S. pyogenes
  Antimicrobial activity (time kill curve): Cidal at 8X only (slow killing)
[7]
  No. of strains with MBC/MIC value of: 1: 0
  No. of strains with MBC/MIC value of: 2: 1
  No. of strains with MBC/MIC value of: 4: 1
  No. of strains with MBC/MIC value of: 8: 1
  No. of strains with MBC/MIC value of: 16: 0
  No. of strains with MBC/MIC value of: ≧32: 2
[5]
  MIC50: 0.12 µg/mL (≈ 0.148 µM)
[6]
  MIC Range: ≦0.008-2 μg/ml
E. faecalis (ATCC 29212)
  Antimicrobial activity (time kill curve): Static
[2]
  Antimicrobial activity (time kill curve): Static
S. pneumoniae
  Antimicrobial activity (time kill curve): Static
Enterococcus spp.
  No. of strains with MBC/MIC value of: 1: 0
  No. of strains with MBC/MIC value of: 2: 0
  No. of strains with MBC/MIC value of: 4: 0
  No. of strains with MBC/MIC value of: 8: 0
  No. of strains with MBC/MIC value of: 16: 0
  No. of strains with MBC/MIC value of: ≧32: 5
[8]
  No. of strains with MBC/MIC value of: 1: 0
  No. of strains with MBC/MIC value of: 2: 0
  No. of strains with MBC/MIC value of: 4: 0
  No. of strains with MBC/MIC value of: 8: 0
  No. of strains with MBC/MIC value of: 16: 2
  No. of strains with MBC/MIC value of: ≧32: 3
[9]
  No. of strains with MBC/MIC value of: 1: 2
  No. of strains with MBC/MIC value of: 2: 1
  No. of strains with MBC/MIC value of: 4: 1
  No. of strains with MBC/MIC value of: 8: 0
  No. of strains with MBC/MIC value of: 16: 0
  No. of strains with MBC/MIC value of: ≧32: 1
S. aureus
  No. of strains with MBC/MIC value of: 1: 0
  No. of strains with MBC/MIC value of: 2: 0
  No. of strains with MBC/MIC value of: 4: 0
  No. of strains with MBC/MIC value of: 8: 0
  No. of strains with MBC/MIC value of: 16: 0
  No. of strains with MBC/MIC value of: ≧32: 10
[3]
  Cs: 1.04 ×MIC
  EC50: 0.097 ×MIC
